# Measured values as given in the BET-seq Pho4 binding data (Le et al. 2018).
# Some of the results follow. These are noisy estimates, calculated here from bound and input reads.
# Target: T1, Pho4 (S. cerevisiae) (UniProt P07270)
# T1 sequence: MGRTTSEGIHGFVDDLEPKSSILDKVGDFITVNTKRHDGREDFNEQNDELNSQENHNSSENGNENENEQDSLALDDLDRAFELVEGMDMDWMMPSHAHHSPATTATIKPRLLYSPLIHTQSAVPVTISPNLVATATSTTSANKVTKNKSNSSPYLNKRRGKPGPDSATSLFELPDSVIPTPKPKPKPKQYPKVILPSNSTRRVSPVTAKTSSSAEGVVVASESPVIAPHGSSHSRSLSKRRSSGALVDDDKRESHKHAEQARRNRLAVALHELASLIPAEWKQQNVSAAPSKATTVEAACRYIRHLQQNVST
# Test: relative binding free energy (BET-seq); higher = weaker binding
# Settings: reference: library average
row,Sequence,relative binding free energy [kcal/mol]
1,ATGGACACGTGGGAAA,0.11
2,GGGCGCACGTGTGAAG,0.05
3,GGTGTCACGTGAAGTG,0.44
4,GTAACCACGTGGGGGG,-0.08
5,GGTTACACGTGGTGCG,0.12
6,GCGTTCACGTGAGGTG,0.45
7,AAGTTCACGTGCGTTG,0.12
8,AAGGACACGTGGATGT,0.15
9,TTAGGCACGTGGTCGA,-0.25
10,ATGGGCACGTGGTTAA,-0.19
11,TTCTGCACGTGTCGGC,0.19
12,GTAGGCACGTGGGGGA,-0.14
13,GATTCCACGTGGGTGG,-0.01
14,ATGTGCACGTGGAAAT,-0.04
15,ATGAACACGTGTTGCG,0.07
16,AAAGTCACGTGCATGG,0.1
17,TGCGTCACGTGGGGTA,-0.07
18,TTTTGCACGTGGTAAT,-0.04
19,GATGTCACGTGGTTGC,0.06
20,AATGGCACGTGTGTTT,0.03
21,TGCATCACGTGGGAGG,0.03
22,ACGTTCACGTGGCAGT,0.29
23,TATTTCACGTGGTGCG,0.17
24,GATGGCACGTGATGAG,0.06
25,CTGGTCACGTGGCTAG,0.04

row,Sequence,relative binding free energy [kcal/mol]
1,AGTGGCACGTGGCAAT,-0.25
2,TATTGCACGTGGGTCA,-0.26
3,ATTTGCACGTGTGGGC,0.13
4,GCTGGCACGTGTTATG,-0.07
5,AGTTTCACGTGGAGTG,0.29
6,GTGGTCACGTGCGATA,0.22
7,CAATTCACGTGGTGGT,0.08
8,GGAAACACGTGTTGGT,0.11
9,TTCGTCACGTGTTTTT,0.17
10,GTTTGCACGTGGAATG,0.16
11,AGTCGCACGTGCGAGG,-0.03
12,GGAATCACGTGTAGTG,0.23
13,TCGGGCACGTGGTAGG,-0.31
14,GTGTCCACGTGAGGTA,0.3
15,TGGATCACGTGTTGTA,0.12
16,CATTGCACGTGCGGTG,-0.01
17,TAGTTCACGTGGTTAG,0.21
18,TGGTTCACGTGCTGGC,0.32
19,GTTGACACGTGTCAGT,0.01
20,TGTTTCACGTGGCGAG,0.1
21,AGGTCCACGTGGTGCG,-0.13
22,ATATACACGTGTGGAT,0.14
23,GTTAGCACGTGATATG,0.14
24,GTGATCACGTGTTAGA,0.13
25,AGCTGCACGTGTGGCT,-0.02

row,Sequence,relative binding free energy [kcal/mol]
1,AGGTGCACGTGGGTTA,-0.23
2,AGGTTCACGTGTCGAT,0.29
3,TTAGGCACGTGTTGTT,-0.01
4,AGCGGCACGTGTCGTG,0.05
5,GTAATCACGTGTGTTC,0.14
6,TGATGCACGTGGCTTG,-0.24
7,CGTAGCACGTGGCTGT,-0.14
8,ATTGTCACGTGGTAGG,-0.01
9,TTTGTCACGTGAACGA,0.33
10,GTGTTCACGTGTTACA,0.27
11,GGTTTCACGTGCATGC,0.33
12,AGTATCACGTGGGCAC,0.17
13,TTCTCCACGTGGGGTG,-0.27
14,ATGGTCACGTGTTGCT,0.19
15,CGCTTCACGTGTTTTG,0.33
16,TGATGCACGTGTTTGT,-0.13
17,GGTGACACGTGGGCGT,-0.09
18,TGTTACACGTGTGGAT,0.13
19,GTCTGCACGTGGGCAG,-0.08
20,TTCAGCACGTGGGTGA,-0.18
21,GTAAGCACGTGAGGTT,0.3
22,TTAATCACGTGATTAT,0.16
23,CGGTGCACGTGTGAGG,0.06
24,GTGGTCACGTGTTCGC,0.15
25,GTTCACACGTGGGAAT,0.29

row,Sequence,relative binding free energy [kcal/mol]
1,GCGATCACGTGGGAGG,0.18
2,GCGGTCACGTGTGTGA,0.24
3,CGGAACACGTGGTGGG,0.03
4,GGAATCACGTGGTGTG,0.11
5,TTGGCCACGTGTGAGA,0.05
6,GTTCACACGTGGTTCT,0.14
7,GGGGGCACGTGGTAGG,-0.18
8,TTGTACACGTGGACTG,0
9,AGATGCACGTGAATGT,0.14
10,TTGGTCACGTGGGGGA,0.03
11,GGTGACACGTGGGTGT,-0.05
12,CAAGTCACGTGGGTGT,-0.06
13,GTGCGCACGTGGTCAG,-0.16
14,TCGAGCACGTGATGTT,0
15,TGTGGCACGTGGCCTT,-0.17
16,TTTTACACGTGGCTCG,0.07
17,AACCTCACGTGGTGGG,0.29
18,TAGGGCACGTGGGGTG,-0.17
19,AGATGCACGTGCATGG,0
20,GGGGTCACGTGCTTTG,0.22
21,TTGGACACGTGATGGA,0.18
22,TACATCACGTGGTGTG,-0.04
23,TCGTACACGTGTAAGG,0.19
24,GGGTGCACGTGGAGAT,0.06
25,TATTTCACGTGGTGGA,0.28

row,Sequence,relative binding free energy [kcal/mol]
1,GGTTACACGTGCTTAT,0.1
2,TGGCGCACGTGCGTTA,-0.15
3,TAAGGCACGTGAAATT,0.14
4,TGGGCCACGTGACGTG,0.03
5,CAGTTCACGTGTTTGT,0.21
6,GGAGGCACGTGTTAAA,-0.09
7,GTCGTCACGTGGTTAA,0.15
8,TGATACACGTGAGGTT,0.23
9,GGAGTCACGTGATGCG,0.31
10,GGAGTCACGTGGAGTG,0.24
11,GATTACACGTGTAGAG,0.21
12,TGGAACACGTGATGGA,0.24
13,GTATACACGTGTTGTC,0.12
14,AGAAACACGTGAAGGG,0.25
15,TTGGGCACGTGGGTCA,-0.25
16,AGTTCCACGTGGGAGG,-0.1
17,GTCATCACGTGTTATG,0.2
18,GGAGTCACGTGATGTG,0.18
19,GATTCCACGTGGTGTT,0.01
20,TTTTGCACGTGGAACG,0.08
21,ATGAACACGTGTTGAA,0.1
22,TTGTACACGTGATTTT,0.18
23,AGGAACACGTGGTGAG,-0.09
24,CGGATCACGTGGCGTT,0.05
25,GGTGACACGTGGGAAA,0.02

row,Sequence,relative binding free energy [kcal/mol]
1,GTAGACACGTGACTGG,0.2
2,TATGGCACGTGGTTGG,-0.06
3,AGGGCCACGTGTGAGT,-0.02
4,TTTTGCACGTGAACGT,0.05
5,GAGGTCACGTGTTACG,0.24
6,GTGGTCACGTGTAGAT,0.23
7,GTTTTCACGTGTTGTG,0.36
8,TCAGTCACGTGGTGTA,-0.14
9,GGTGACACGTGAAATT,0.36
10,GCATTCACGTGTAGTT,0.45
11,AGAGTCACGTGGGTAG,0.06
12,GTAGTCACGTGGGAGA,0.02
13,AGTGACACGTGGATGG,0.01
14,GTCAGCACGTGGGATG,-0.26
15,GTTCTCACGTGGGCGT,0.17
16,TAATTCACGTGATATA,0.25
17,AATTTCACGTGGTACA,0.29
18,AAAGTCACGTGTGTTC,0.2
19,ATTTTCACGTGGTGTA,0.24
20,TTTATCACGTGTCGGG,0.22
21,GACGTCACGTGTGGTT,0.19
